From publication PMC6919601, “Identification of Plasmodium dipeptidyl aminopeptidase allosteric inhibitors by high throughput screening” (PLoS ONE, 2019)
Hit rate of the full screen: of about 110,000 compounds, about 230 (0.21%) showed an effect of 50% or more. The list shows a part of the results.

The molecules below were run against DPAP1 (Plasmodium falciparum, UniProt Q8IIJ9) (assay: primary screen, percent inhibition; read by cleavage of a fluorogenic dipeptide substrate; higher = more effect of the substance).
Design: species or system P. falciparum D10 trophozoite lysates; single well
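Further: 30 min substrate incubation versus DMSO and 10 µM JCP410 controls.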

Sequence of DPAP1 (Q8IIJ9 whole entry, looked up): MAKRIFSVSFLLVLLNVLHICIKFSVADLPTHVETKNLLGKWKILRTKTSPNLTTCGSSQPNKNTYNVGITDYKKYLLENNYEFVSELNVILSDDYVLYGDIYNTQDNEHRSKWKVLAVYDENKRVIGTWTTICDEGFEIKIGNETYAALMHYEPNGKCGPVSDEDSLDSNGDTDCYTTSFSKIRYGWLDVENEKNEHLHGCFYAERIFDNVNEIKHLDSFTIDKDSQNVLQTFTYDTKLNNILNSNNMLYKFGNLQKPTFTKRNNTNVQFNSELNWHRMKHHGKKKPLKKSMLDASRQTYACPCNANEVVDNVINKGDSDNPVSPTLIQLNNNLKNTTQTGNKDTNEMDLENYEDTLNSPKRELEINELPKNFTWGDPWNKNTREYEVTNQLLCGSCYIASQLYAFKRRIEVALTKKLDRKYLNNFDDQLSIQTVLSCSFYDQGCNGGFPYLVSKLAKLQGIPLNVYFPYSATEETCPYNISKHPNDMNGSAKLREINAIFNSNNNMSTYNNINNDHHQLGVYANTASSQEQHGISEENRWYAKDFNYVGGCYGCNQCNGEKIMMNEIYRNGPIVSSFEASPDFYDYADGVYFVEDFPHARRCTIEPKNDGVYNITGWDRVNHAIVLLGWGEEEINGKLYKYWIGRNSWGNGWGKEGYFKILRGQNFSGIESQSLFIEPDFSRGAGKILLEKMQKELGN

Structure (SMILES) | % Inhibition @ 10 uM [%]
NC(=O)Cn1c(=O)n(Cc2cccs2)c(=O)c2cccnc21 | -1.66
CCc1nnc(NC(=O)c2sc3nc(-c4cccs4)cc(C(F)(F)F)c3c2N)s1 | 0.487
CCc1nn(C(C)C(=O)N2CCCCCC2)c(=O)c2cc3occc3n12 (stereo not shown) | -3.79
CCN(CC)CC#CC(OC(C)=O)c1ccccc1 (stereo not shown) | -1.98
COCCNC(=O)C1CC(=O)N(C2CCCCC2)C1 (stereo not shown) | -3.58
CCn1c(=N)c(C#N)cc2c(=O)n3ccccc3nc21 | 1.97
COc1cccc(NC(=O)COc2ccccc2OC)c1 | -4.97
Cc1cc(C)c2c(=O)n(CC(=O)NCCc3ccc(Cl)cc3)sc2n1 | 15.6
Cc1nc(Oc2ccc(F)cc2)c(C(=O)O)c(C)c1Cl | -4.35
NC(=O)c1ccc(NC(=O)c2ccccc2F)cc1 | -6.91
Cc1cc(NC(=O)CSc2nnc(Cc3cccn3C)n2C)no1 | 3.33
CC(C)C[C@H](NC(=O)c1ccc(NC(=N)N)cc1)C(=O)N[C@@H](CCCCNC(=O)OCc1ccccc1)C(=O)O | -1.41
COc1ccc2nc(O)c(CN(C)C(=O)c3cccc(Cl)c3)cc2c1 | -2.4
Cc1ccc(C(=O)N(C)Cc2ccccc2)cc1[N+](=O)[O-] | -5.11
COCCNc1nc2c(c(=O)n(C)c(=O)n2C)n1Cc1ccccc1C | 3.6
O=C1c2cccnc2C(=O)N1c1ccccc1 | 1.01
COc1ccc(OC)c(NC(=O)COc2ccc(Cl)cc2Cl)c1 | -1.02
CCCc1nc2nc(C)cc(NCc3ccccc3)n2n1 | 1.3
O=C(COc1ccc(Cl)cc1S(=O)(=O)NCCOCC(F)(F)F)N1CCOCC1 | 3.54
CC(=O)c1ccc(NC(=O)c2cnn3c(C(F)F)cc(C4CC4)nc23)cc1 | -1.28
O=C(Cn1nc(-c2ccccc2)ccc1=O)N1CCCCC1 | 2.18
CCOc1cccc(C(=O)Nc2cccc(-c3nc4ncccc4o3)c2C)c1 | -5.49
O=C(Nc1ccccc1F)c1cccs1 | 0.467
O=C(CSc1nc2c(sc3ccccc32)c(=O)n1CCCN1CCCC1)NCc1ccccc1 | 4.47
COCCCNC(=O)Cn1nc(C)n2c(cc3ccccc32)c1=O | 3.24
CCn1c(-c2ccccc2)cs/c1=N\c1ccc(O)cc1 | 1.72

Structure (SMILES) | % Inhibition @ 10 uM [%]
O=C(c1ccco1)N1CCN(c2ncnc3[nH]cnc23)CC1 | -3.47
Cc1ccc2c(CN3CCN(c4ncccn4)CC3)cc(=O)oc2c1 | -3.49
CCOc1ccc(C(=O)C2=C(O)C(=O)N(Cc3ccco3)C2c2ccc(Br)cc2)cc1 (stereo not shown) | -4.82
CC1(C)CC(=O)C2=C(C1)OC(N)=C(C#N)C2c1ccc(COc2ccc(F)cc2Cl)o1 (stereo not shown) | -1.84
COc1ccc(/C=C/C(=O)O)cc1S(=O)(=O)NCC1CCCO1 (stereo not shown) | 1.25
CCc1nc(SC)ncc1C(=O)NCCCN1CCCCC1 | 5.71
OCCNCc1ccc(OCc2ccccc2Cl)cc1 | 2.84
CC(C)(C)NC(=O)C1CCN(S(=O)(=O)c2ccc(F)cc2)CC1 | 1.57
CN(Cc1ccccc1)C(=O)c1ccc([N+](=O)[O-])cc1 | 1.91
O=C1CC(C2CCCO2)C(=O)N1c1ccc(Cl)cc1 (stereo not shown) | -1.32
COc1ccc(CCNC(=O)c2csc3c2CCCC3)cc1OC | -3.21
COCCN1C(=O)c2ccccc2C(C(=O)NCC2COc3ccccc3O2)C1c1ccc(F)cc1 (stereo not shown) | 2.84
COc1cc([N+](=O)[O-])c(C)cc1NC(C)=O | -4.31
CCOc1ccc(NC(=O)c2ccc(C(F)(F)F)cc2)cc1 | 0.161
Cc1nn(-c2ccccc2)c2sc(C(=O)NCCc3ccccc3)cc12 | 1.75
Cc1ccccc1Cn1c(C(=O)O)c(CNCCCN2CC(C)CC(C)C2)c2ccccc21 (stereo not shown) | 5.09
COc1cc(C(=O)NCc2ccco2)cc(OC)c1OC | -5.64
COc1cc(OC)c(S(=O)(=O)N2CCOCC2)cc1C(=O)Nc1cccc(C(=O)O)c1 | 0.0265
Nc1nc(N)c2[nH]c(SCc3ccccc3)nc2n1 | -5.48
Cc1nc2c(c(C)c1CCC(=O)NCc1ccccc1Cl)c(=O)n(C)c(=O)n2C | -3.1
CC(C)CCNc1nc2ccc(C(=O)c3ccccc3)cc2n2cnnc12 | 1.23
Cc1ccccc1OCC(=O)Nc1cccc(N2C(=O)c3ccccc3C2=O)c1 | 1.9
Cc1nc(SCC(=O)Nc2ccc(C(N)=O)cc2)c(C#N)c(C)c1C | 0.674
O=C(CN1C(=O)C2C3CCC(C3)C2C1=O)Nc1ccc(-c2ccccc2)cc1 (stereo not shown) | 1.79
Cc1ccc(OCCN2CCN(c3ncnc4sc5c(c34)CCCC5)CC2)cc1 | -0.85
O=C(N1CCCC1)N1c2ccccc2Sc2ccccc21 | 3.7

Structure (SMILES) | % Inhibition @ 10 uM [%]
Cc1cc(C)cc(OS(=O)(=O)CCN2C(=O)NC3(CCCCC3)C2=O)c1 | -0.424
COc1ccc(C(=O)/C=C/c2ccc(Cl)cc2Cl)c(OC)c1 | 4.33
CCOc1ccc(-c2cc(C(=O)N3CCC(C)CC3)c3ccccc3n2)cc1 | -4.06
COc1cc(NC(=O)CCc2ccccc2)c(C(=O)O)cc1OC | 0.231
COC(=O)c1c(NC(=O)c2ccccc2)sc(C(=O)Nc2ccccc2C)c1C | 1.64
COc1cc2c(cc1OC)C1C(C(=O)N3CCC4(CC3)OCCO4)c3ccccc3C(=O)N1CC2 (stereo not shown) | 1.16
CCOC(=O)N1CCN(S(=O)(=O)c2ccc(C)cc2)C1C(C)C (stereo not shown) | 1.67
COc1cc(C2Nc3ccc4ccccc4c3C3=C2C(=O)CC(C)(C)C3)cc(OC)c1O (stereo not shown) | 2.78
N#Cc1nc(COc2ccccc2)oc1NCc1ccc2c(c1)OCO2 | 1.43
CC(Cc1ccccc1F)N[C@H]1CC[C@H](O)CC1 (stereo partly shown) | 0.0792
COCCNc1nc2ccccc2n2c(C)nnc12 | 3.17
COc1cccc(C2C(C#N)=C(N)Oc3cc(O)ccc32)c1 (stereo not shown) | 3.99
O=C(O)c1ccc(Cn2c(SCc3ccc(F)cc3)nc3cccnc32)cc1 | 1.72
CC(C)(C)Nc1ncnc(N)c1[N+](=O)[O-] | -9.6
Cc1cccc(NC(=O)CN2Cc3ccccc3C2=O)n1 | -4.96
COc1ccc(-c2c(C(C)=O)c(C)nc3sc4c(SC)nc(C)nc4c23)cc1 | -2.28
CC(C)(C)NC(=S)N1CCn2cccc2C1c1ccccc1F (stereo not shown) | 7.92
COc1ccc(C2C3=C(O)CC(C)(C)CC3=Nc3nc4ccccc4n32)cc1 (stereo not shown) | -3.53
Fc1ccc(F)c(CN2CCc3c([nH]c4ccccc34)C2)c1 | -3.5
COc1ccc(/C=C/c2nc3sc4c(c3c(=O)o2)CCCC4)cc1 | -4.11
FC(F)(F)c1cc(-c2ccccc2)nc2ncnn12 | 1.87
Cc1ccccc1NC(=O)c1c(NC(=O)CCC(=O)O)sc2c1CCCCC2 | 1.71
O=C(NC1CCN(c2ncccn2)CC1)c1cccc(F)c1 | -10.6
COc1ccc(CNCc2cc(OC)c(OC)cc2OC)cc1 | -1.08
CC(C)(C)c1ccc(-c2nc(O)c3ccccc3n2)cc1 | -4.71
Cc1ccc(NC(=O)c2ccccc2Cl)c(C)c1 | -0.351

Structure (SMILES) | % Inhibition @ 10 uM [%]
CCCOc1ccc(N2C(=O)CC(NCCc3ccc(F)cc3)C2=O)cc1 (stereo not shown) | -1.95
O=C(O)CCNC(=O)c1cccnc1 | 0.222
O=C([C@@H]1C[C@@H]1c1ccccc1)N1CCCCCC1 | -3.77
COc1ccccc1CNC(=O)c1oc2ccc(S(=O)(=O)N3CC(C)CC(C)C3)cc2c1C (stereo not shown) | 1.94
Cc1cccc(OCCCCCn2ccnc2)c1C | -0.693
O=S(=O)(NCC(c1ccccc1)N1CCOCC1)c1ccccc1 (stereo not shown) | -4.07
N#CC1=C(N)Oc2cc(OCc3ccccc3)ccc2C1C1CC=CCC1 (stereo not shown) | 2.7
COc1ccc(C2C(C#N)=C(N)Oc3[nH]nc(-c4ccccc4)c32)c(CSc2ccccn2)c1 (stereo not shown) | -3.02
O=C(ONc1cnc2ccccc2c1)c1ccco1 | 7.5
NS(=O)(=O)c1ccc(N2CCCC2=O)cc1 | -1.86
COc1ccccc1OCC(=O)Nc1nccs1 | 5.23
COc1cc(NS(=O)(=O)c2ccccc2)c(OC)cc1Cl | -0.822
C=CCCCOc1ccc(C(=O)O)cc1 | 4.6
CCC(=O)Nc1ccc2[nH]c(C)nc2c1 | -0.294
CCOc1ccc(C2c3c(oc4ccccc4c3=O)C(=O)N2c2ccc(C)cn2)cc1 (stereo not shown) | -3.64
NC(=O)c1ccccc1NC(=O)CCCc1ccccc1 | -0.68
CCN1CCC(N(C)CCc2ccccc2)CC1 | -3.8
O=C(NCC1CCCO1)c1cc(-c2ccco2)nc2ccccc12 (stereo not shown) | 3.05
CC(C)c1ccccc1NC(=O)CN(c1ccccc1F)S(C)(=O)=O | -2.32
O=C(NC1CCCCCC1)C1CCCN1S(=O)(=O)c1cccc2cccnc12 (stereo not shown) | -2.42
Cc1ccc(CS(=O)Cc2ccc(C(=O)N3CCC(C(N)=O)CC3)o2)cc1 (stereo not shown) | -0.0309
CCc1ccccc1NC(=O)/C=C\C(=O)O | 3.01
COc1ccc(C(=O)O/N=C2/c3ccccc3-c3nc4ccccc4nc32)cc1 | -6.41
CCCCCCO/C(O)=C1\C(C)=NC(=S)NC1c1ccccc1OCC (stereo not shown) | 23.6
COc1ccc(Cl)cc1NC(=O)c1cccc(C(=O)Nc2cc(Cl)ccc2OC)n1 | 2.76
